Measured values taken from the RNAGym collection of RNA variant scans (doi:10.1073/pnas.2313332121).
Variants at the floor of the assay are shown more often than the library holds them.

B1: TPR 5TU (parent)
chain: GGAUCUUCUCGAUCUAACAAAAAAGACAAAUCUGCCACAAAGCUUGAGAGCAUCUUCGGAUGCAGAGGCGGCAGCCUUCGGUGGCGCGAUAGCGCCAACGUUCUCAACUAUGACACGCAAAACGCGUGCUCCGUUGAAUGGAGUUUAUCAUG

Variants of: B1
Experiment: polymerase ribozyme fitness, log enrichment relative to wild type (log ratio); higher = more active; in vitro selection for triplet polymerase activity
Summary of the method: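 After PCR construction and transcription, each subunit's mutant library from a heterodimeric triplet polymerase ribozyme was annealed with a biotinylated primer, the partner subunit and triplets. Incubation was frozen, at −7 °C, and extended constructs were gel-excised, bound to streptavidin beads and amplified by RT-PCR, in one selection round done in triplicate. Fitness is the logarithm of a genotype's enrichment divided by that of the wild type, from inverse-variance-weighted replicate averages of Illumina-sequenced inputs and outputs. The base of the logarithm is 2, and genotypes needed ≥10 input reads and ≥1 read per output.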

U6A A37G C54G C87U G124C U146C and U6A A39C U45A A60C C87G C96A cannot be ordered by “polymerase ribozyme fitness (log ratio)” value: ≤ -4.2 for the first, ≤ -4.2 for the second.

U6A C8A A12G C43U A64C G86C C87A and U6A C8A G25A C36U U53A U55G C85G A89G cannot be ordered by “polymerase ribozyme fitness (log ratio)” value: ≤ -4.2 for the first, ≤ -4.2 for the second.

U6A C8G A16C A47U C95A A97G A98C U104A A107C and U6A C8G A28U A49C A66G C93U A98G cannot be ordered by “polymerase ribozyme fitness (log ratio)” value: ≤ -4.2 for the first, ≤ -4.2 for the second.

U6A C8G A60C G62A C85A C103A and U6A C10G A16G A21U C36U G83U U90A C93U A110G G126C cannot be ordered by “polymerase ribozyme fitness (log ratio)” value: ≤ -4.2 for the first, ≤ -4.2 for the second.

U6A C14A U15C U56A C69A U130A and U6A C14G A24U G62U C85U G92C A107G A113U cannot be ordered by “polymerase ribozyme fitness (log ratio)” value: ≤ -4.2 for the first, ≤ -4.2 for the second.

U6A C14G A26C C63G G65C U78G and U6A C14U A91C A150U cannot be ordered by “polymerase ribozyme fitness (log ratio)” value: ≤ -4.2 for the first, ≤ -4.2 for the second.

U6A C18G A47G A49C G81A A97G C116G and U6A C27U A41C U55A G62C G71C C85A G143U cannot be ordered by “polymerase ribozyme fitness (log ratio)” value: ≤ -4.2 for the first, ≤ -4.2 for the second.

U6A C27U U45A C54G U78C G84A U148C and U6A C32G C35U U53A G94C C116A C149A cannot be ordered by “polymerase ribozyme fitness (log ratio)” value: ≤ -4.2 for the first, ≤ -4.2 for the second.

U6A C38G C43U A47G A91C G126U and U6A C38G C85U C95U C103G A113G C114U A142C cannot be ordered by “polymerase ribozyme fitness (log ratio)” value: ≤ -4.2 for the first, ≤ -4.2 for the second.

U6A C38G G42C G86U C93U U127A and U6A C38U A47C A52C C54A A66U U90C A107C A150C cannot be ordered by “polymerase ribozyme fitness (log ratio)” value: ≤ -4.2 for the first, ≤ -4.2 for the second.

Going from U6A C43U to U6A C69G G84U U145C, the “polymerase ribozyme fitness (log ratio)” value rises from ≤ -4.2 to -1.67.

Going from U6A C93A to U6A G11A U45A U53G C76U U90G C118U, the “polymerase ribozyme fitness (log ratio)” value falls from -2.58 to ≤ -4.2.

U6A G25A A26C G50U A52G C76G C118G G136A and U6A G42A G59U A60G C85A U139C cannot be ordered by “polymerase ribozyme fitness (log ratio)” value: ≤ -4.2 for the first, ≤ -4.2 for the second.

U6A G42C A49C A52C C75U C85U A91U and U6A G58A U77G G88A C103G A137U cannot be ordered by “polymerase ribozyme fitness (log ratio)” value: ≤ -4.2 for the first, ≤ -4.2 for the second.

U6A G80C G94A and U6A U7G C36U C85A U144A cannot be ordered by “polymerase ribozyme fitness (log ratio)” value: ≤ -4.2 for the first, ≤ -4.2 for the second.

U6A U9C C10G G58C C85A U146A and U6A U9G A26U C38G C85U A97U U135C cannot be ordered by “polymerase ribozyme fitness (log ratio)” value: ≤ -4.2 for the first, ≤ -4.2 for the second.

U6A U13A C14U C32G C51G C69U C93U G124C and U6A U31A A52C C93U A113G C114U cannot be ordered by “polymerase ribozyme fitness (log ratio)” value: ≤ -4.2 for the first, ≤ -4.2 for the second.

U6A U31A C36U A52C G65C U101G C103U G136U and U6A U31G G59A U61A C63A G92C C103U A121C C132A A138C cannot be ordered by “polymerase ribozyme fitness (log ratio)” value: ≤ -4.2 for the first, ≤ -4.2 for the second.

Going from U6A U31G G59A U61A C63A G92C G141A to U6A U44G A98U A107U, the “polymerase ribozyme fitness (log ratio)” value rises from ≤ -4.2 to -1.58.

Going from U6C A12U A49C C85U G86C A97C U139C A142U A150U to U6C A16G A24U C96A C118U, the “polymerase ribozyme fitness (log ratio)” value rises from ≤ -4.2 to -3.92.

U6C A16U G42C G70C G92C and U6C A17U U33C C51G C57G G83U C95G A98G U127G cannot be ordered by “polymerase ribozyme fitness (log ratio)” value: ≤ -4.2 for the first, ≤ -4.2 for the second.

U6C A19U G25C G50A C54G U56A C69A C85A C105G and U6C A20C A28C A37U G42U G71A C85U C99G A106G C131G cannot be ordered by “polymerase ribozyme fitness (log ratio)” value: ≤ -4.2 for the first, ≤ -4.2 for the second.

U6C A22C A66U C75G A89U A91C G128U U130C and U6C A24C G86U U104G C125U cannot be ordered by “polymerase ribozyme fitness (log ratio)” value: ≤ -4.2 for the first, ≤ -4.2 for the second.

U6C A29C C57G C75U C93A C114G A120G G141U and U6C A30U A40U U135C A147C cannot be ordered by “polymerase ribozyme fitness (log ratio)” value: ≤ -4.2 for the first, ≤ -4.2 for the second.

First: U6C A37C C87U G88A G136U U144G
Second: U6C A37C C93U
The “polymerase ribozyme fitness (log ratio)” value of the first is lower: ≤ -4.2 for the first, -3.12 for the second.

U6C A39C A66G U90A C93A C99A G100C C103A C116G A147C and U6C A40U G74A C93A C95G U111C U127G cannot be ordered by “polymerase ribozyme fitness (log ratio)” value: ≤ -4.2 for the first, ≤ -4.2 for the second.

Compared with U6C A47C G81C C87G C96U, U6C A47G G59C G92U C99A C118G is higher in “polymerase ribozyme fitness (log ratio)” value: ≤ -4.2 for the first, -3.32 for the second.

U6C C8A A20C G46A G80U G141C and U6C C8A U111G G143C cannot be ordered by “polymerase ribozyme fitness (log ratio)” value: ≤ -4.2 for the first, ≤ -4.2 for the second.

Going from U6C C8U U15G to U6C C10A A16G A20C C85U A120C U145C, the “polymerase ribozyme fitness (log ratio)” value falls from -2.42 to ≤ -4.2.

U6C C10U A23G C27G G58C C75G G81A C85A C105G G140A and U6C C14G U55G A60U cannot be ordered by “polymerase ribozyme fitness (log ratio)” value: ≤ -4.2 for the first, ≤ -4.2 for the second.

U6C C18G A26U A40C A47C A49G U61G A73U C76G C87G and U6C C38A C54U G88A C93G U139G cannot be ordered by “polymerase ribozyme fitness (log ratio)” value: ≤ -4.2 for the first, ≤ -4.2 for the second.

U6C C43G C75A A91C C125A G128U and U6C C54U C85A G86A cannot be ordered by “polymerase ribozyme fitness (log ratio)” value: ≤ -4.2 for the first, ≤ -4.2 for the second.

U6C C72A G83A A121G and U6C C75U C87G G117A cannot be ordered by “polymerase ribozyme fitness (log ratio)” value: ≤ -4.2 for the first, ≤ -4.2 for the second.

Going from U6C C87U to U6C C95U A98U C99U, the “polymerase ribozyme fitness (log ratio)” value falls from -1.52 to -2.4.

U6C G11A A37G A52G G86A G100A and U6C G46A A49U G62U G84C A97G U109G cannot be ordered by “polymerase ribozyme fitness (log ratio)” value: ≤ -4.2 for the first, ≤ -4.2 for the second.

U6C U7G A49G A66C G74A C96G and U6C U9C A19C A26U C43G G80C C87U C93A U102G G112U cannot be ordered by “polymerase ribozyme fitness (log ratio)” value: ≤ -4.2 for the first, ≤ -4.2 for the second.

U6C U9G C76A G88A A91U and U6C U13G C43G C76U U90A U151G cannot be ordered by “polymerase ribozyme fitness (log ratio)” value: ≤ -4.2 for the first, ≤ -4.2 for the second.

U6C U31G A39C A150G and U6C U45A C54A cannot be ordered by “polymerase ribozyme fitness (log ratio)” value: ≤ -4.2 for the first, ≤ -4.2 for the second.

First: U6C U55G C132A A138G
Second: U6C U56C A89C A121U
The “polymerase ribozyme fitness (log ratio)” value of the first is lower: ≤ -4.2 for the first, -2.59 for the second.

First: U6C U61A C76A G94C A110C
Second: U6C U61A C85U A97C A120G
The “polymerase ribozyme fitness (log ratio)” value of the first is lower: ≤ -4.2 for the first, -3.12 for the second.

U6G A12G U53G A115G G133A and U6G A12G U56A A66C C87G A150C cannot be ordered by “polymerase ribozyme fitness (log ratio)” value: ≤ -4.2 for the first, ≤ -4.2 for the second.

For U6G A16C G42A, the “polymerase ribozyme fitness (log ratio)” value was ≤ -4.2.
